{"source": "PubChem BioAssay AID1508623", "about": "(National Center for Advancing Translational Sciences (NCATS), 2021)", "note": "The whole screen tested about 48,000 compounds, of which about 450 (0.94%) were called active. Not shown: some 19% with an inconclusive outcome. The call rests on the fitted dose curve; in most records, active means well fitted inhibition curve with a large enough effect; inconclusive means small, poorly fitted or top-dose-only effect; inactive means no such curve, though single readings can be large or run the other way. This is one part of the list.", "data": [{"test": "Primary qHTS for Identification of Small Molecule Inhibitors of Huntingtin Promoter Activity; further: nearly all actives have a fitted effect of over 50% in size", "details": "HEK293 HTT promoter firefly luciferase reporter (activity 0% = vehicle and -100% = no light), 24 h; series mostly up to 57.5 µM; activity change, negative = inhibition: at the top concentration", "summary_of_the_method": "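Firefly luciferase signal from promoter-reporter HEK293 cells was scaled between vehicle (0%) and zero RLU (-100%). Compounds were tested at final concentrations of up to 57.5 uM over 24 h at 37 degrees C. PTC124 at 50 uM final served as control inhibitor.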", "values": [{"smiles": "Cc1ccc(S(=O)(=O)c2cn(CC(=O)Nc3ccc4c(c3)OCO4)c3ccccc3c2=O)cc1", "activity change, negative = inhibition": "inactive: -17.6%"}, {"smiles": "Cc1cccc2sc(N(CCCN(C)C)C(=O)c3ccc(Cl)s3)nc12", "activity change, negative = inhibition": "inactive: -7.2%"}, {"smiles": "COc1cc(C2C(C(=O)OCC(C)C)=C(C)N=C3SCCC(=O)N32)ccc1OCc1ccccc1", "note": "(stereo not drawn)", "activity change, negative = inhibition": "inactive: -15.4%"}, {"smiles": "Cc1cccc(NC(=O)Cn2nnc(C(=O)Nc3ccc(F)c(Cl)c3)c2N)c1", "activity change, negative = inhibition": "inactive: -15.3%"}, {"smiles": "COc1cccc(NC(=O)CSc2nc(=O)n(Cc3ccco3)c3c2CCC3)c1", "activity change, negative = inhibition": "inactive: -57.9%"}, {"smiles": "N#Cc1c(NC(=O)c2cccc3ccccc23)sc2c1CCCC2", "activity change, negative = inhibition": "inactive: -29.7%"}, {"smiles": "CC1=C(C(=O)Nc2ccc(C)cc2C)C(C(C)C)n2nc(SCc3ccccc3Cl)nc2N1", "note": "(stereo not drawn)", "activity change, negative = inhibition": "inactive: -10.9%"}, {"smiles": "Cc1cc(C)c2nc(N(Cc3cccnc3)C(=O)c3ccc(S(=O)(=O)N(C)C)cc3)sc2c1", "activity change, negative = inhibition": "inactive: -21.6%"}, {"smiles": "CCN1CCN(c2cc3c(cc2F)c(=O)c(S(=O)(=O)c2ccc(OC)cc2)cn3CC)CC1", "activity change, negative = inhibition": "inactive: 0.739%"}, {"smiles": "Cn1c(C(=O)NCc2ccccc2F)cc2oc3ccccc3c21", "activity change, negative = inhibition": "inactive: -17.2%"}, {"smiles": "O=C(c1ccco1)n1nc(-c2ccccc2)nc1NCc1ccc(F)cc1", "activity change, negative = inhibition": "inactive: 2.66%"}, {"smiles": "CCN1CCN(c2oc(-c3ccc(COc4ccc(C)cc4)o3)nc2C#N)CC1", "activity change, negative = inhibition": "inactive: -24.8%"}, {"smiles": "CCCCNc1ncnc2c1nnn2C", "activity change, negative = inhibition": "inactive: -3.4%"}, {"smiles": "COc1ccc2oc(-c3cccc(NC(=O)c4ccc(C#N)cc4F)c3)nc2c1", "activity change, negative = inhibition": "inactive: -4.73%"}, {"smiles": "COc1cc(C(=O)Nc2ccc3[nH]c(=O)sc3c2)cc(OC)c1OC", "activity change, negative = inhibition": "inactive: 12.1%"}, {"smiles": "CC1=C(C(=O)Nc2cccnc2)C(c2cccc(F)c2)n2nc(SCc3ccccc3)nc2N1", "note": "(stereo not drawn)", "activity change, negative = inhibition": "inactive: -12.5%"}, {"smiles": "COc1cccc(NC(=O)Cn2c(=O)n(-c3ccc(Cl)cc3)c(=O)c3oc4ccccc4c32)c1", "activity change, negative = inhibition": "inactive: -22.9%"}, {"smiles": "Cc1ccc(S(=O)(=O)N2CCN(Cc3noc(CCC(=O)N4CCCCC4)n3)CC2)c(C)c1", "activity change, negative = inhibition": "inactive: -23.1%"}, {"smiles": "CC(C)Cn1c(=O)c2sccc2n2c(CCCC(=O)NCCc3ccccc3)nnc12", "activity change, negative = inhibition": "inactive: -6.97%"}, {"smiles": "COc1cccc(C(=O)NCC(=O)OCc2cc(=O)n3c(C)csc3n2)c1", "activity change, negative = inhibition": "inactive: 4.42%"}, {"smiles": "Cc1nc(Nc2ccc(Cl)cc2)cc(-c2ccccc2)n1", "activity change, negative = inhibition": "inactive: 37.4%"}, {"smiles": "COc1ccccc1CNC(=O)NCc1noc2ccc(C)cc12", "activity change, negative = inhibition": "inactive: -24.6%"}, {"smiles": "COc1ccc(CNC(=O)c2nc(SC(C)C)ncc2Cl)cc1", "activity change, negative = inhibition": "inactive: -22%"}, {"smiles": "Cc1ccn2c(Nc3ccc4c(c3)OCO4)c(-c3ccc(N(C)C)cc3)nc2c1", "activity change, negative = inhibition": "inactive: 30.3%"}, {"smiles": "CCOC(=O)c1c(-c2ccccc2)csc1NC(=O)c1cc(-c2ccc(Br)cc2)on1", "activity change, negative = inhibition": "inactive: 0.503%"}, {"smiles": "Cc1nc2ccc(S(=O)(=O)CCC(=O)Nc3ccc(C)c(C)c3)cc2s1", "activity change, negative = inhibition": "inactive: -17.1%"}, {"smiles": "COCCCNC(=O)c1sc2nc3n(c(=O)c2c1C)CCC3", "activity change, negative = inhibition": "inactive: 30.9%"}, {"smiles": "CCOc1ccc(C2=NC(c3ccc(OC)cc3)=Nc3ccc(Cl)cc3N2)cc1", "activity change, negative = inhibition": "inactive: 57%"}]}]}
